Measurements: PMC12136788
The other results are listed elsewhere or left out.

T1: UNK ZnF1-3 (human, UniProt Q9C0B0 31-174)
T1 sequence: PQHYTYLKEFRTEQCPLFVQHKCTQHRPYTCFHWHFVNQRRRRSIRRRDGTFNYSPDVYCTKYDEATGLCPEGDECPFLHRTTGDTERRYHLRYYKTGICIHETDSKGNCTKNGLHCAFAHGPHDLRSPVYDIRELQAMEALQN

B1: chr20:43533720:43533721:+_ENSG00000166913_ENST00000353703|hu_hu|FALSE|FALSE (ssRNA)
RNA: GGGAGUUCUACAGUCCGACGAUCAAAUGCCGUUUUUGCCAGGCUACAGGCCUUUUCAGGAGAGUUUAGAAUCUCAUAGUAAAAGACUGAGAAAUUUAGUGCCAGACCAAGACGAAUUGGGUGUGUAGGCUGCAUUUCUUUCUUCAACAGAGGAUUGAGCAUCA
B2: 97386883_97387435_3001_CDS_ENSMUSG00000038453_ENSMUST00000107596|mouse|control|control (ssRNA)
RNA: GGGAGUUCUACAGUCCGACGAUCCGCAGCCUCAACAGACACAGCUUUGUCCGUGUUUCUCUUGCUGGAAGCAUCCAGGCCUUUGGUGGGGUUAGUGCUCUUUGGGGUGAGAGGGGUGCCUUCGGCAGGUCCACUCAGCUCGUGCAACAGAGGAUUGAGCAUCA
B3: chr1:225611761:225611762:-_ENSG00000143815_ENST00000272163|hu_mus|hu_hu_hu_mus_True|98_108 (ssRNA)
RNA: GGGAGUUCUACAGUCCGACGAUCCCAGGCCAUCGACCUCUUACCACUUCACCCUCAACAAACUUCCUACUUGGCAUUUUCUAAAAUUAGUCUGGCCGCGCUCCGGCGGGAACUCCAGCCACUCCAGGACAGUCACCAGCAGCCCAACAGAGGAUUGAGCAUCA
B4: chr9:48874791:48874792:+_ENSMUSG00000032264_ENSMUST00000034803|mus_hu|FALSE|FALSE (ssRNA)
RNA: GGGAGUUCUACAGUCCGACGAUCAAGCAUCUCAGCCAAUGGGACAGUAGAUGUUUUUUCAUUUUCCAGGUCAGUGUCAAGUGGCAAAUCUAGAAGCUGUUUCUGGAGCACUUCUAGUACCAGUCUGAUCUUUGUAAAAACUUCCAACAGAGGAUUGAGCAUCA
B5: chr11:100581416:100581417:-_ENSMUSG00000019173_ENSMUST00000107364|mus_hu|motif|central (ssRNA)
RNA: GGGAGUUCUACAGUCCGACGAUCCCCGCCAUUGCCCGUCCAGCUGUAGUGGUCCAGAGAGCGUGCGGGUGGGGACUGGUGCGGUGCAAAGAGGCACUUAGUGGGGAGGGGGACCUCCAAGGCGGCUCCGGGGCGGCGGCGUUACAACAGAGGAUUGAGCAUCA
B6: chr5:21408736:21408737:-_ENSMUSG00000042453_ENSMUST00000161356|mus_mus|motif|central (ssRNA)
RNA: GGGAGUUCUACAGUCCGACGAUCGUUGACAGCAUUAUAAAUGGUGGCUUCAUGGAACUGGAACGGGGAGCAGCCAAUGCGGUUGGAAGAGGAAGGUAGGCACUGGGUCUGCACGAGCUGCCAGGAAUCGGACCUUGCAUCCUUCAACAGAGGAUUGAGCAUCA
B7: 54675199_54675611_138_CDS_ENSG00000135486_ENST00000330752|human|control|control (ssRNA)
RNA: GGGAGUUCUACAGUCCGACGAUCCCUGGAGCGCUUGGUGUUUGGAUCUCUCAUUACCACACAGUCCGUGAGCGUUCCCCAUUGCUCAAAAUGGCUCCUCAGGCUCUCAUCAGUUGUUUCAAAGCUCAACCCUCCAAUGAAGAGCAACAGAGGAUUGAGCAUCA
B8: chr1:130485734:130485735:-_ENSMUSG00000045382_ENSMUST00000052172|mus_mus|mus_mus_mus_hu_False|58_78 (ssRNA)
RNA: GGGAGUUCUACAGUCCGACGAUCGAUGAAGGAGUCGAUGCUGAUCCCAAUGUAGUAUGGCAGCCAGCAGGCGAAGAAAGCUAGGAUGAGGAUGACUGUGGUCUUGAGGGCCUUGCGCUUCUGGUGGCCCUUGGAGUGUGACAGCAACAGAGGAUUGAGCAUCA
B9: chr19:8913615:8913616:-_ENSMUSG00000071658_ENSMUST00000096259|mus_hu|mus_mus_mus_hu_False|8_48 (ssRNA)
RNA: GGGAGUUCUACAGUCCGACGAUCAGGGUACCAAAACCUUCUGCCUGAAAUGGGUGCCCCACCCAGUAGGGAGUUGCAGCUGAAAGUAUCCGUAGCAGAAGCAGUGACUAUACGAAAGGAGGCCCCUGAUGCUCAGAAGGCCAGCAACAGAGGAUUGAGCAUCA
B10: chr8:35894304:35894305:-_ENSMUSG00000031529_ENSMUST00000033929|mus_hu|FALSE|FALSE (ssRNA)
RNA: GGGAGUUCUACAGUCCGACGAUCCACAAAAAAACAAAAAACAAACAAACAAUAGCCAAUGAUGCAUGUCUGGCAAAUCAAAAACAAGCUUGUUGCCUGUCGUAUGUGUAUAUUUGUUAUAGACACGUCAUGCAUAACAAAACACAACAGAGGAUUGAGCAUCA
B11: chr17:16285243:16285244:+_ENSG00000170315_ENST00000535788|hu_hu|FALSE|FALSE (ssRNA)
RNA: GGGAGUUCUACAGUCCGACGAUCUCACAUUUUCGAUGGUGUCACUGGGCUCCACCUCAAGGGUGAUGGUCUUGCCGGUAAGGGUUUUCACGAAGAUCUGCAUUUUGACCUGUUAGCGGAUACCAGGAUCCUGCCAAUCACCAACAACAGAGGAUUGAGCAUCA
B12: 58046153_58046273_1771_CDS_ENSMUSG00000051243_ENSMUST00000114144|mouse|control|control (ssRNA)
RNA: GGGAGUUCUACAGUCCGACGAUCCCACUGAACUGCCGUGCCACCCCCCGCAGGACACAGAUAGAGUAGGCGCAGUGGCCGCCUCCCCGGCCGCCGCGCUCCGCUAGCACCAUCUGGCCCAGGGCCCCAGCGCGCAGCAAGAGGCAACAGAGGAUUGAGCAUCA
B13: 118583070_118583859_1604_CDS_ENSG00000088205_ENST00000263239|human|control|control (ssRNA)
RNA: GGGAGUUCUACAGUCCGACGAUCACGAUGAAUAUAUUCCUUAGGGUCAUCCGGAGGGUCAUACUGAACAAUCCAGUCGACUUCAGGAAUGUCUAGUCCUCUCGCUGCCACAUCCGUACACAAUAGUGUUCCCGAAUCUGCAUUCAACAGAGGAUUGAGCAUCA
B14: 126976123_126976385_234_ncRNA_ENSMUSG00000040249_ENSMUST00000135188|mouse|control|control (ssRNA)
RNA: GGGAGUUCUACAGUCCGACGAUCACUGGGUUGGUGAAGUUGGUAGGCUUGUCAGGGUCAAGGGCAAAAUCAGCAUCCAGUAGGCCCCCGACAUCAUCGGGCUCUCCACCUUCAUACAUCUUGUAGGUAGGGUUUCCAAUUUCCCAACAGAGGAUUGAGCAUCA

molecular target: T1, UNK ZnF1-3; assay: nsRBNS (natural sequence RNA bind-n-seq); RBNS binding buffer (assumed for nsRBNS): 25 mM Tris pH 7.5, 150 mM KCl, 3 mM MgCl2, 0.01% Triton X-100, 500 ug/ml BSA, 20 U/ml SUPERase-In, 4 C; UNK is unkempt and MSI1 is Musashi-1; names of the RNAs are library labels; protein concentration not given here; high values mean tight binding

Row | Binder | binding signal
1 | B1 | 1.08 enrichment R
2 | B2 | 0.922 enrichment R
3 | B3 | 1.37 enrichment R
4 | B4 | 0.939 enrichment R
5 | B5 | 1.4 enrichment R
6 | B6 | 1.62 enrichment R
7 | B7 | 0.908 enrichment R
8 | B8 | 1.32 enrichment R
9 | B9 | 0.907 enrichment R
10 | B10 | 0.724 enrichment R
11 | B11 | 0.668 enrichment R
12 | B12 | 0.976 enrichment R
13 | B13 | 0.525 enrichment R
14 | B14 | 0.495 enrichment R
